Drawing on PMC9911399, “Two distinct binding modes provide the RNA-binding protein RbFox with extraordinary sequence specificity”, this text covers binding signal for 31 molecules.

Changes are numbered by the printed parent chain; changes in the protein carry UniProt numbers. Some of the results follow.

T1: RBFOX1 RRM RbFoxmut (Fox-RRM*) (Homo sapiens, UniProt Q9NWB1 109-208, R118D;E147R;N151S;E152T)
T1 sequence: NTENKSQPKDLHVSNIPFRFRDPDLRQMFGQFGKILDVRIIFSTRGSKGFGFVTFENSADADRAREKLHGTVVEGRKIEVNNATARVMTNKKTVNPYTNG

B1: AGGUGAU (DNA:RNA)
RNA: GGGAGACCGGAAUUCAGAUUGUCCAGGUGAUUUAAAUCCCGUCGUAGCCACCA
DNA 1: CAATCTGAATTCCGGTCTCCC
DNA 2: TGGTGGCTACGACGGGATT
B2: UUUUGUU (DNA:RNA)
RNA: B1 RNA with A25U, G26U, G27U, A30U
DNA 1: CAATCTGAATTCCGGTCTCCC
DNA 2: TGGTGGCTACGACGGGATT
B3: CGCUGCC (DNA:RNA)
RNA: B1 RNA with A25C, G27C, A30C, U31C
DNA 1: CAATCTGAATTCCGGTCTCCC
DNA 2: TGGTGGCTACGACGGGATT
B4: GUCCCGC (DNA:RNA)
RNA: GGGAGACCGGAAUUCAGAUUGUCCGUCCCGCUUAAAUCCCGUCGUAGCCACCA
DNA 1: CAATCTGAATTCCGGTCTCCC
DNA 2: TGGTGGCTACGACGGGATT
B5: CGUUCGU (DNA:RNA)
RNA: B1 RNA with A25C, G27U, G29C, A30G
DNA 1: CAATCTGAATTCCGGTCTCCC
DNA 2: TGGTGGCTACGACGGGATT
B6: CUGCAAU (DNA:RNA)
RNA: B1 RNA with A25C, G26U, U28C, G29A
DNA 1: CAATCTGAATTCCGGTCTCCC
DNA 2: TGGTGGCTACGACGGGATT
B7: AGGCCAG (DNA:RNA)
RNA: B1 RNA with U28C, G29C, U31G
DNA 1: CAATCTGAATTCCGGTCTCCC
DNA 2: TGGTGGCTACGACGGGATT
B8: GCUGCCA (DNA:RNA)
RNA: B4 RNA with U26C, C27U, C28G, G30C, C31A
DNA 1: CAATCTGAATTCCGGTCTCCC
DNA 2: TGGTGGCTACGACGGGATT
B9: CGCAAUA (DNA:RNA)
RNA: B1 RNA with A25C, G27C, U28A, G29A, A30U, U31A
DNA 1: CAATCTGAATTCCGGTCTCCC
DNA 2: TGGTGGCTACGACGGGATT
B10: AUAGCUG (DNA:RNA)
RNA: B4 RNA with G25A, C27A, C28G, G30U, C31G
DNA 1: CAATCTGAATTCCGGTCTCCC
DNA 2: TGGTGGCTACGACGGGATT
B11: UAUAGAC (DNA:RNA)
RNA: B1 RNA with A25U, G26A, G27U, U28A, U31C
DNA 1: CAATCTGAATTCCGGTCTCCC
DNA 2: TGGTGGCTACGACGGGATT
B12: GUGUUGU (DNA:RNA)
RNA: B1 RNA with A25G, G26U, G29U, A30G
DNA 1: CAATCTGAATTCCGGTCTCCC
DNA 2: TGGTGGCTACGACGGGATT
B13: AGUCUAA (DNA:RNA)
RNA: B1 RNA with G27U, U28C, G29U, U31A
DNA 1: CAATCTGAATTCCGGTCTCCC
DNA 2: TGGTGGCTACGACGGGATT
B14: AUAUCUG (DNA:RNA)
RNA: B1 RNA with G26U, G27A, G29C, A30U, U31G
DNA 1: CAATCTGAATTCCGGTCTCCC
DNA 2: TGGTGGCTACGACGGGATT
B15: UCUCAGA (DNA:RNA)
RNA: B4 RNA with G25U, U26C, C27U, C29A, C31A
DNA 1: CAATCTGAATTCCGGTCTCCC
DNA 2: TGGTGGCTACGACGGGATT
B16: AGUGACG (DNA:RNA)
RNA: B1 RNA with G27U, U28G, G29A, A30C, U31G
DNA 1: CAATCTGAATTCCGGTCTCCC
DNA 2: TGGTGGCTACGACGGGATT
B17: UACGGCA (DNA:RNA)
RNA: B1 RNA with A25U, G26A, G27C, U28G, A30C, U31A
DNA 1: CAATCTGAATTCCGGTCTCCC
DNA 2: TGGTGGCTACGACGGGATT
B18: GGCUAAC (DNA:RNA)
RNA: B1 RNA with A25G, G27C, G29A, U31C
DNA 1: CAATCTGAATTCCGGTCTCCC
DNA 2: TGGTGGCTACGACGGGATT
B19: GCUCGAU (DNA:RNA)
RNA: B1 RNA with A25G, G26C, G27U, U28C
DNA 1: CAATCTGAATTCCGGTCTCCC
DNA 2: TGGTGGCTACGACGGGATT
B20: AACCUAA (DNA:RNA)
RNA: B1 RNA with G26A, G27C, U28C, G29U, U31A
DNA 1: CAATCTGAATTCCGGTCTCCC
DNA 2: TGGTGGCTACGACGGGATT
B21: AAUUUGU (DNA:RNA)
RNA: B1 RNA with G26A, G27U, G29U, A30G
DNA 1: CAATCTGAATTCCGGTCTCCC
DNA 2: TGGTGGCTACGACGGGATT
B22: GUGUCGG (DNA:RNA)
RNA: B4 RNA with C27G, C28U, C31G
DNA 1: CAATCTGAATTCCGGTCTCCC
DNA 2: TGGTGGCTACGACGGGATT
B23: CUGCGUG (DNA:RNA)
RNA: B1 RNA with A25C, G26U, U28C, A30U, U31G
DNA 1: CAATCTGAATTCCGGTCTCCC
DNA 2: TGGTGGCTACGACGGGATT
B24: ACAGACC (DNA:RNA)
RNA: B1 RNA with G26C, G27A, U28G, G29A, A30C, U31C
DNA 1: CAATCTGAATTCCGGTCTCCC
DNA 2: TGGTGGCTACGACGGGATT
B25: GGCUGUC (DNA:RNA)
RNA: B1 RNA with A25G, G27C, A30U, U31C
DNA 1: CAATCTGAATTCCGGTCTCCC
DNA 2: TGGTGGCTACGACGGGATT
B26: CAGAGAU (DNA:RNA)
RNA: B1 RNA with A25C, G26A, U28A
DNA 1: CAATCTGAATTCCGGTCTCCC
DNA 2: TGGTGGCTACGACGGGATT
B27: UUGAACG (DNA:RNA)
RNA: B1 RNA with A25U, G26U, U28A, G29A, A30C, U31G
DNA 1: CAATCTGAATTCCGGTCTCCC
DNA 2: TGGTGGCTACGACGGGATT
B28: GGGCCUG (DNA:RNA)
RNA: B4 RNA with U26G, C27G, G30U, C31G
DNA 1: CAATCTGAATTCCGGTCTCCC
DNA 2: TGGTGGCTACGACGGGATT
B29: UUAUGCU (DNA:RNA)
RNA: B1 RNA with A25U, G26U, G27A, A30C
DNA 1: CAATCTGAATTCCGGTCTCCC
DNA 2: TGGTGGCTACGACGGGATT
B30: CACGUUC (DNA:RNA)
RNA: B4 RNA with G25C, U26A, C28G, C29U, G30U
DNA 1: CAATCTGAATTCCGGTCTCCC
DNA 2: TGGTGGCTACGACGGGATT
B31: GGUGUAU (DNA:RNA)
RNA: B1 RNA with A25G, G27U, U28G, G29U
DNA 1: CAATCTGAATTCCGGTCTCCC
DNA 2: TGGTGGCTACGACGGGATT

In the experiment the target is T1, RBFOX1 RRM RbFoxmut (Fox-RRM*). Description: EMSA; HiTS-Eq, 1 nM pool, 10 min; buffer printed only for the single-RNA assays: 10 mM Tris pH 7.5, 150 mM NaCl, 3.4 mM EDTA, 0.001% NP-40, 30 C. The following applies: tags: His6 N-terminal (pET28a); label: 5' 32P. A digest of the protocol: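 Purified RbFox RRM (wild type or mutant) was equilibrated for 10 min in 50 µL with 1 nM of a 5′-radiolabelled pool of RNA with 7 randomized nucleotides, its flanks annealed to DNA oligonucleotides, across increasing protein concentrations. Free RNA was separated by 8% native PAGE, excised, reverse-transcribed, PCR-barcoded and sequenced on an Illumina HiSeq 2500. Relative association constants came from read-count changes of each variant against the control reaction, normalised to the cognate motif.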
For orientation: A gel shift assay detects complexes by their altered migration in electrophoresis.
For B1, the binding signal was 0.0684 KA relative to UGCAUGU.
B2: the binding signal is 0.107 KA relative to UGCAUGU.
With B3, the binding signal was 0.324 KA relative to UGCAUGU.
Turning to B4, the binding signal was 0.0784 KA relative to UGCAUGU.
In the case of B5, the binding signal is 0.15 KA relative to UGCAUGU.
For B6 the value was 0.0574 KA relative to UGCAUGU; for B7, 0.104 KA relative to UGCAUGU.
In the case of B8, the binding signal is 0.0957 KA relative to UGCAUGU.
With B9, the binding signal was 0.114 KA relative to UGCAUGU.
Turning to B10, the binding signal was 0.107 KA relative to UGCAUGU.
B11: the binding signal was 0.0686 KA relative to UGCAUGU.
For B12, the binding signal was 0.181 KA relative to UGCAUGU.
Consider B13, for which the binding signal is 0.0901 KA relative to UGCAUGU.
The result for B14 reads 0.086 KA relative to UGCAUGU.
For the molecule B15, the binding signal was 0.0817 KA relative to UGCAUGU.
In the case of B16, the binding signal was 0.102 KA relative to UGCAUGU.
The result for B17 reads 0.111 KA relative to UGCAUGU; that for B18, 0.078 KA relative to UGCAUGU; that for B19, 0.0915 KA relative to UGCAUGU.
On to B20, for which the binding signal is 0.0948 KA relative to UGCAUGU.
The result for B21 reads 0.0863 KA relative to UGCAUGU.
B22: the binding signal was 0.111 KA relative to UGCAUGU.
Turning to B23, the binding signal is 0.232 KA relative to UGCAUGU.
B24: the binding signal is 0.0708 KA relative to UGCAUGU.
The result for B25 reads 0.211 KA relative to UGCAUGU.
The result for B26 reads 0.0945 KA relative to UGCAUGU; that for B27, 0.39 KA relative to UGCAUGU.
For the molecule B28, the binding signal was 0.297 KA relative to UGCAUGU.
Turning to B29, the binding signal is 0.13 KA relative to UGCAUGU.
Turning to B30, the binding signal was 0.0608 KA relative to UGCAUGU.
As for B31, the binding signal is 0.12 KA relative to UGCAUGU.
